Measurements as given in the RNAGym collection of RNA variant scans (doi:10.1093/nar/gkz1192).
Read counts are not given, so values of variants with three or more changes are uncertain.

B1: CPEB3 Ribozyme (parent)
chain: UAACAGGGGGCCACAGCAGAAGCGUUCACGUCGCAGCCCCUGUCAGAUUCUGGUGAAUCUGCGAAUUCUGCUGUAUAUCUC

Variants of: B1
Assay: self-cleavage, relative activity (ratio to wild type); higher = more cleavage; in vitro, sequencing
Procedure, shortened: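 CPEB3 self-cleaving ribozyme mutant libraries were made by rounds of error-prone PCR, barcoded, and transcribed in vitro with T7 RNA polymerase for 5 hours at 37°C. Cleavage occurred during transcription and a 15 min DNase I step before EDTA stop. RNAs were reverse transcribed with template switching and Illumina-sequenced, with DNA sequencing mapping barcodes to variants. Relative activity is the variant's cleaved/total read fraction divided by wild type's (minimum 5 reads), averaged across three batches.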

Variant	self-cleavage
UAACAGGGGGCCACAGCGGAAGCGUACACGUCGCAGCCCCUGUCAGAUUCUGGUGAAUCUGCGAAUUCUGCUGCAUAUCUC [A18G U26A U74C]	0.87
UAACAGGGGGCCACAGCGGAAGCGUCCGCGUCCCAGCCCCUGUCAGAUUCUGGUGAAUCUGCGAAUUCUGCUGUAUAUCUC [A18G U26C A28G G33C]	0.17
UAACAGGGGGCCACAGCGGAAGCGUCCGCGACGCAGCCCCUGUCAGAUUCUGGUGAAUCUGCGAAUUCUGCUGUAUAUCUC [A18G U26C A28G U31A]	0.21
UAACAGGGGGCCACAGCGGAAGCGUCCUCGUCGCAGCCCCUGUCAGAUUCUGGUGAAUCUGCGAAUUCUGCUGUAUAUCUC [A18G U26C A28U]	0.27
UAACAGGGGGCCACAGCGGAAGCGUCCUCGUCGCAGCCCCUGCUAGAUUCUGGUGAAUCCGCGAAUUCUGCUGUAUAUCUC [A18G U26C A28U U43C C44U U60C]	0.05
UAACAGGGGGCCACAGCGGAAGCGUCCACGUCGCGGCCCCUGUCCGAUUCUGGUGAAUCUGCGAAUUCUGCAGUAUAUCUC [A18G U26C A35G A45C U72A]	0.06
UAACAGGGGGCCACAGCGGAAGCGUCCACGUCGCAGCCCCUGUCUGAUUCUGGUGAAUCUGCGAAUUCUGCUGUAUAUCUC [A18G U26C A45U]	0.27
UAACAGGGGGCCACAGCGGAAGCGUCCACGUCGCAGCCCCUGUCUGAUUCUGGUGAAUCCGCGAAUUCUGCUGUAUAUCUC [A18G U26C A45U U60C]	0.09
UAACAGGGGGCCACAGCGGAAGCGUCCACGUCGCAGCCCCUGUCAGAUUCUGGUGUAUCUUCGGAUUCUGCUGUAUAUCUC [A18G U26C A56U G61U A64G]	0.17
UAACAGGGGGCCACAGCGGAAGCGUCCACGUCGCAGCCCCUGUCAGAUUCUGGUGAGUCUGCGAAUUCUGCUGUAUAUCUC [A18G U26C A57G]	0.31
UAACAGGGGGCCACAGCGGAAGCGUCUGCGUCCCAGCCCCUGUCAGAUUCUGGUGAAUCUGCGAAUUCUGCUGUAUAUCUC [A18G U26C C27U A28G G33C]	0.05
UAACAGGGGGCCACAGCGGAAGCGUCCAAGUCGCAGCCCCCGCCAGAUACUGGUGUAUCUGCGAAUUCUGCUGUAUAUCUC [A18G U26C C29A U41C U43C U49A A56U]	0.07
UAACAGGGGGCCACAGCGGAAGCGUCCACGUCGCAGCCCCCGUCAGAUACUGGUGAAUCUGCGAAUGCUGCUGUAUAUCUC [A18G U26C U41C U49A U67G]	0.07
UAACAGGGGGCCACAGCGGAAGCGUCCACGUCGCAGCCCCUGCCAGAUUCUGGUGAAUCUGCGAAUUCUGCUGUAUAUCUC [A18G U26C U43C]	0.47
UAACAGGGGGCCACAGCGGAAGCGUCCACGUCGCAGCCCCUGGCAGAUUCUGGUGAAUCUGCGAAUUCUGCUGUAUAUCUC [A18G U26C U43G]	0.11
UAACAGGGGGCCACAGCGGAAGCGUCCACGUCGCAGCCCCUGUCAGACUCUGGUGAAUCCGCGAAUUCUGCUGUAUAUCUC [A18G U26C U48C U60C]	0.41
UAACAGGGGGCCACAGCGGAAGCGUCCACGUCGCAGCCCCUGUCAGAUUCUGGCGAAUCUGCGAAAUCUGCUGUAUACCUC [A18G U26C U54C U66A U78C]	0.02

Variant	self-cleavage
UAACAGGGGGCCACAGCGGAAGCGUCCACGUCGCAGCCCCUGUCAGAUUCUGGUGAAACUGCGAAUUCUGCUGUAUAUCUC [A18G U26C U58A]	0.14
UAACAGGGGGCCACAGCGGAAGCGUCCACGUCGCAGCCCCUGUCAGAUUCUGGUGAAUCCGCGAAUUCCGCAGUAUAUCUC [A18G U26C U60C U69C U72A]	0.27
UAACAGGGGGCCACAGCGGAAGCGUCCACGUCGCAGCCCCUGUCAGAUUCUGGUGAAUCUGCGAAUUCUGCCGUAUAUCUC [A18G U26C U72C]	0.35
UAACAGGGGGCCACAGCGGAAGCGUCCACGUCGCAGCCCCUGUCAGAUUCUGGUGAAUCUGCGAAUUCUGCUGUACAUCUC [A18G U26C U76C]	0.2
UAACAGGGGGCCACAGCGGAAGCGUCCACGUCGCAGCCCCUGUCAGAUUCUGGUGAAUCUGCGAAUUCUGCUGUAUACCUC [A18G U26C U78C]	0.13
UAACAGGGGGCCACAGCGGAAGCGUGCUCGUCGCAGCCCCUGUCUGAUUCUGGUGAAUCUGCGAAUUCUGCUGUAUAUCUC [A18G U26G A28U A45U]	0.06
UAACAGGGGGCCACAGCGGAAGCGUGCACGUCGCGGCCCCUGCCAGAUUCUGGUGAAUAUGCGAAUCCUGCUGUAUAUCUC [A18G U26G A35G U43C C59A U67C]	0.16
UAACAGGGGGCCACAGCGGAAGCGUGCACGUCGCAGCCCCUGUCAGAUUCUGGCGAAUCUGCGAAUUCUGCUGUAUAUCUC [A18G U26G U54C]	0.11
UAACAGGGGGCCACAGCGGAAGCGUUCACGACGCGGCCCCCGUCAGAUUCUGGUGAAUCUGCGAAUUCUGCUGUAUAUCUC [A18G U31A A35G U41C]	0.63
UAACAGGGGGCCACAGCGGAAGCGUUCACGACGCGGCCCCUGUCAGAUUCUGGCGAAUCUGCGAAUUCUGCUGUAUACCUC [A18G U31A A35G U54C U78C]	0.32
UAACAGGGGGCCACAGCGGAAGCGUUCACGACGCAGCCCCUGUCAGAUUCUGGUGAAUCUGCGGAUUCUGCUGUAUAUCUC [A18G U31A A64G]	0.18
UAACAGGGGGCCACAGCGGAAGCGUUCACGACGCAGCCCCUGUCAGAUCCCGGUGAAUCUGCGAAUUCUGCUGUAUAUCUC [A18G U31A U49C U51C]	0.1
UAACAGGGGGCCACAGCGGAAGCGUUCACGACGCAGCCCCUGUCAGAUUCUGGUGAAUCUGCGAAUUCUGCCGUUUAUCUC [A18G U31A U72C A75U]	0.54
UAACAGGGGGCCACAGCGGAAGCGUUCACGACGCAGCCCCUGUCAGAUUCUGGUGAAUCUGCGAAUUCUGCUGUAUACCUC [A18G U31A U78C]	0.32
UAACAGGGGGCCACAGCGGAAGCGUUCACGCCGCAGCCCCUGUCCGAUGCUGGUGAAUCUGCGAAUUCUGCUGUAUAUCUC [A18G U31C A45C U49G]	0.31
UAACAGGGGGCCACAGCGGAAGCGUUCACGCCGCAGCCCCUGUCAGAUUCUGGUGAAUCUGCGUAUUCUGCUGCAUAUCUC [A18G U31C A64U U74C]	0.22
UAACAGGGGGCCACAGCGGAAGCGUUCACGCCGCAGCCCCUGUCAGAUUCUGGUGAAUCUGCGAAUUCUGCUGUAUGUCCC [A18G U31C A77G U80C]	0.26
